Read counts are not given, so values of variants with three or more changes are uncertain.
B1: LINE1-mini (parent)
chain: GGCAGAGCUCAACACAGCGUGGCAAAGUGGCUGUGGCUAGACUGCC

Variants of: B1
Experiment: self-cleavage, relative activity (ratio to wild type); higher = more cleavage; in vitro, sequencing; the parent is a self-cleaving ribozyme

Variant	self-cleavage
C3G A14U U32C G36A	0.04
G17U G19C U28A	0.93
C15A G30A U43G C46G	0.01
C18G A24C A25C G33A U34G	0.23
U28G U32C G33A C45U	0.08
A24G G27U U32G	0.09
A12U C13A C37U A41C C46U	0.01
A11U G36A C45A C46A	0.06
C13U G19C G44A	0.03
U9C C10A G27U U28G U34C	0.09
G7A A24G U32C A41G	0.13
A4G G30C A41G	0.61
G22A C31G G33U U43A	0.08
G2C G17A C31G U34C C37A	0.07
C8G A25C G27A G44U	0.01
C10A U20G C42A	0
A12U C23A G36A	0.01
G5A G21C C37A U43A	0.04
G1C C23A C37G	0.01
C15U G22A G29U C31U C46A	0.03
A6C A26U G27A U38A	0.04
G21C C31A C46G	0.06
G19A C37A C42G	0.03
A6C G7U G27U G36C	0.03

Variant	self-cleavage
C13G C23U G30U A41U	0.09
A25C C31A G36C C37A C42A U43C	0.01
C15G G17A C18A	0.05
A6C C10G G29U G30A C37G	0.02
G7U A16C G30C	0.06
C3U G22A G27A U43C	0.01
G5U A12G U20A C46G	0.08
G21U A41U U43C C46A	0.06
C3U G7C G30U G33C C42U G44U	0.15
A11C A26C G33C C45G	0.03
A14U G19U G35C U38C	0.07
G21U G29A C37U	0.01
G2U A14U A26G	0.08
C3U A4U G17A C23G	0.1
U20A A39G C45A	0.08
C10U G30U G35U C37A	0.02
A4G A11G A25C G36A	0.02
C10A A11C A26C	0.02
C3A A12C C18A C23A A39U A41C	0.01
C8G A26C C37A	0.06
C23U A24C G36A G44A	0.07
C10A A14G C37A	0.01
G2U C8G C10U G30U	0.02
A6U G7C A25C	0.1

Variant	self-cleavage
A12C A26U U28G A39U C46G	0
C18G U20C A26C	0.18
U20G G22C U32A C42A	0.01
G21A G30A C31A	1.11
G2C C18U G19C A39G	0.15
A26U U38A U43C	0.06
C3A A14C G22U G27U C31A	0.04
U20A A26U C42U C46A	0.08
A14G G29C G36A C37A C42A C45U	0.1
A16U A26U G30C	0.45
C3U A41G U43C	0.3
C15G U28G G35A G36U	0.03
G2U A6C A16U C31A	0.03
C13G G17U C18U G29C C42A	0.02
C15G U20G G30U G40C	0
C3U G40A C45U	0.66
G5U A24G A41C	0.05
C3A A14U U20C G29U	0.67
A6C G19A C37U G40U	0.3
G7A U9C C10U G22U C23A	0
C13U A16C G19A U20C A25U G36U C46A	0.52
A16C A25G C37U G44C C46U	0.04
G35U G44U C46U	0.4
G1U G33C U34A G35U C45U	0

Variant	self-cleavage
G7C U20C G35A C37G	0.02
G7C C18U C31A A39C	0.05
G33A G35A A39C	0.29
U32G G33C G40C	0.07
C3U A11G U20G G21A	0.02
G2C A11U A26C A39U U43C	0
A12G G35C C45U	0.01
C3A A11C C23A C42A	0
G5A G19A A24C C42A	0.02
G5U C23G G29A G36U A39U	0.02
G36C C37A U38C	0.1
G2U C3A U34C	0.08
G5A C31U U34A G35A	0.04
U9G C13U C31G A41U	0.11
C3U U9A U20A U38C	0.1
C13U A14U C18A C31A C45A	0.04
G7A U9G C13G C31A U34A G35A C42G	0
G1U C18U A25C	0.09
C18U C23G G29U C42G	0.01
U9A G35U G40C	0.01
U9C G17C G22U	0.04
A4U A11C G44U	0.02
C15U C18A C37G	0.04
C10A G17U G40A	0.02

Variant	self-cleavage
A6C G29C C31U G35A	0
G1A G19C G27A C42A G44C	0.05
G2A A16C G21A	0.02
A12C C18A C37U C46U	0
A11G G17C U28G C31G	0.02
C13U A16C C31U A41G	0.03
G1A A11U G33C C42A C46U	0.05
G17A U20G G22C C42A	0.04
A24G G30U C46A	1.39
G19C C31A U38G	0.17
G1U A4C G19C	0.05
G7C C10A A11C C13G U20G C31A C45A	0.01
G1U A6G C15G C46G	0.01
G1C G5C G7A U20G U38G A41C	0.01
G5U U20A U43C	0.02
C13U C23G A24C	0.21
C8U A25U G27A C31A C37G	0.48
G2U G17A A39C	0.02
C10A C15G G27U	0.02
G30U G36C U38C C46A	0.04
G7U A26U C31A	0.05
G22A A26G G30C C37A	0.1
G7A C13A G27U A39C	0.52
C3U A6G G22U C31U	0.03

Variant	self-cleavage
G5A A11U C15A U34A	0.02
A4G A14U C18A G21A G30U	0.14
U9A G17A G35C G40A	0.03
C3U A4G G17A	0.1
A4U A12C G19C	0.03
G1A G2A C8G	0.07
G19C G30C G35C	0.15
G7U C15A U28G	0.04
C13A A24C A25C G30U U32A	0.07
A16C G19A G27U	0.15
C8A A26G U32G G33U	0.11
C10A A12G C15G G17U	0.01
A12C G19U A25U	0
A16U A26G U38A	0.17
U9A G22A G35U	0.07
C3A A14U C18G U43A	0.04
C8U G17A U20A	0.02
G29C G33A U34A U43A	0.02
C18U G21U U28C G35A A39C	0.1
G1A G33A A39G	0.09
C10A G21A A24G A25U C46U	0.03
C3U C18A A26C	0.06
G2C G36A C46U	0.04
G5U C10A C18A G22A G30A C31G	0.01

Variant	self-cleavage
C13U G27U C31G	0.08
G2U C3G A6C C18U G22C A26G	0.08
C8U G35C C37U	0.06
C10A C13A A39C A41C	0.01
U9G A12C C13A C46A	0.01
G7A A26G G29A	0.2
C8G A14G G21U	0.19
C10A A14C A41G	0
A4C G7C C13A C18A U28C G36C	0.37
G19A G27U U34C G35A	0.14
G1A G21U G22C G33A G40C	0.03
A4G A12C U28G A41U C42G	0.02
G21C C23U A41U	0.7
A16C U34A C42G C45U	0.06
C8A A26G C42U	0.09
G21C A24U G33U C37A	0.02
A4C G5A G30C	0.06
C10G C13G G17U G19U A26C	0
A16C C37G U38A C42U	0.29
C10A G33A U34A	0.04
C3U C8G A25U G33U A39U	0.06
A4U G7A G36A	0.32
C8U C31G A41G C45A	0.08

Reference: the RNAGym collection of RNA variant scans (doi:10.7554/elife.90254)
